Assay results taken from the RNAGym collection of RNA variant scans (doi:10.1093/nar/gkz1192).
The source gives no read counts; variants with many changes may rest on few reads.

B1: CPEB3 Ribozyme (parent)
chain: UAACAGGGGGCCACAGCAGAAGCGUUCACGUCGCAGCCCCUGUCAGAUUCUGGUGAAUCUGCGAAUUCUGCUGUAUAUCUC

Variants of: B1
Test: self-cleavage, relative activity (ratio to wild type); higher = more cleavage; in vitro, sequencing
Summary of the method: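 Relative activity was defined as the cleaved/total read fraction for a variant divided by the same fraction for the unmutated ribozyme. CPEB3 self-cleaving ribozyme libraries were made by rounds of error-prone PCR, barcoded, and transcribed in vitro with T7 RNA polymerase for 5 hours at 37°C, and cleavage ran through transcription plus a 15 min DNase I step before EDTA. Illumina sequencing of template-switched reverse transcripts gave the reads, and DNA sequencing mapped the barcodes. Averages come from three batches, using variants with at least 5 reads.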

| Variant | self-cleavage |
| --- | --- |
| A35G A45G U54C | 1.33 |
| A35G A45G U58C A65G U76A | 0.4 |
| A35G A45U A65G | 0.67 |
| A35G A45U A65G U69A | 0.37 |
| A35G A45U U51A | 1.27 |
| A35G A45U U60A U72A | 1.2 |
| A35G A45U U66C | 0.66 |
| A35G A47C A57G U60A U67C | 0.14 |
| A35G A47G A56C U66C | 0.34 |
| A35G A47G A56G | 1.29 |
| A35G A47G A64U | 1.19 |
| A35G A47G U48A | 0.7 |
| A35G A47G U49C U54A | 0.68 |
| A35G A47G U51A A57G | 1.2 |
| A35G A47G U51A A57G U58C | 1.26 |
| A35G A47G U51C U80C | 1.29 |
| A35G A47G U60C A77G | 0.95 |
| A35G A47G U60C U67C | 0.63 |
| A35G A47G U66C | 1.15 |
| A35G A47G U67C | 0.47 |
| A35G A47G U69C | 1.23 |
| A35G A47U A56G A57U U69C | 0.17 |
| A35G A47U U76C | 1.23 |
| A35G A56G U80G | 1.29 |

| Variant | self-cleavage |
| --- | --- |
| A35G A56U A57U | 1.16 |
| A35G A56U U58G | 0.64 |
| A35G A56U U72A U76C | 1.15 |
| A35G A56U U72C A77G | 1.28 |
| A35G A57G A64G | 1.27 |
| A35G A57G C62A U72C | 0.39 |
| A35G A57G C81A | 1.46 |
| A35G A57G U78C | 1.3 |
| A35G A57U U69G | 0.49 |
| A35G A64G A65C U76C | 0.24 |
| A35G A64G A65G U69C | 0.49 |
| A35G A64G A77G U78C | 1.31 |
| A35G A64G U66C | 1.01 |
| A35G A64G U74A | 1.29 |
| A35G A64G U76C | 1.27 |
| A35G A64G U78C | 1.24 |
| A35G A64U U66A U72C U78C | 0.59 |
| A35G A64U U67C | 0.56 |
| A35G A64U U80C | 1.14 |
| A35G A65C U69C | 0.62 |
| A35G A65G U67A A75G | 0.48 |
| A35G A75G A77G | 1.41 |
| A35G A75G U80C | 1.39 |
| A35G C37A A77G | 0.55 |

| Variant | self-cleavage |
| --- | --- |
| A35G C37A U49C | 0.34 |
| A35G C37A U54A A56G A77C | 0.3 |
| A35G C37G U41A U76A U78C | 0.29 |
| A35G C38A U49A U51C U66A | 0.25 |
| A35G C38A U49C U69C C71A U72C | 0.1 |
| A35G C38G U69C U72C | 0.1 |
| A35G C38U U48C A56G U60A U78C | 0.33 |
| A35G C38U U51A | 1.3 |
| A35G C39A A45G U60G | 0.28 |
| A35G C39A A47G G73A | 1.02 |
| A35G C39A U72C U80A | 1.02 |
| A35G C39A U74A A75G | 0.72 |
| A35G C39U A56G U74C | 1.3 |
| A35G C39U U66A U72C U80C | 1.24 |
| A35G C40A G42A U72A | 0 |
| A35G C40A U43C U51C U66C | 0.1 |
| A35G C40G U67A | 0.21 |
| A35G C40U A45U A56G C71A | 0.34 |
| A35G C40U A57U A64G A77G | 1.12 |
| A35G C40U U43A U49C A56G C62A U78C | 0.12 |
| A35G C40U U48C U54C U72G U80C | 1.18 |
| A35G C40U U51C A75G | 1.25 |
| A35G C44A A56U | 0.67 |
| A35G C44A U72C | 1.15 |

| Variant | self-cleavage |
| --- | --- |
| A35G C50A U74A | 1.28 |
| A35G C59A U69C | 0.62 |
| A35G C62A G63A | 0.16 |
| A35G C62G A64G U80C | 0.58 |
| A35G G36A A56U U58C C62U | 0.15 |
| A35G G36A U80A | 1.01 |
| A35G G36C C62U | 0.07 |
| A35G G42A U60A U72C | 0.18 |
| A35G G42U U80C | 0.39 |
| A35G G46A U72C | 0.55 |
| A35G G46U G63A U76A | 0.88 |
| A35G G52C U74A | 1.29 |
| A35G G53A A57G | 1.2 |
| A35G G53A A64G U74C A75G | 1.32 |
| A35G G61C A64G A77U | 0.7 |
| A35G G63A U66C | 1.25 |
| A35G G63U U66A | 1.23 |
| A35G U41A A45U U69C | 0.19 |
| A35G U41A A45U U72C | 0.11 |
| A35G U41A A56G U78A | 0.34 |
| A35G U41A G46U | 0.12 |
| A35G U41A U49A | 0.19 |
| A35G U41A U60A A65G | 0.19 |
| A35G U41A U60C | 0.15 |

| Variant | self-cleavage |
| --- | --- |
| A35G U41A U60C U78A | 0.12 |
| A35G U41A U72C | 0.38 |
| A35G U41C A45G A47G U54C G61A | 1.07 |
| A35G U41C A47G U54C | 1.26 |
| A35G U41C A47U U60A | 0.14 |
| A35G U41C A56G A57G | 1.2 |
| A35G U41C A56G A77G | 1.27 |
| A35G U41C A56G U72C | 1.42 |
| A35G U41C A56G U72C C79U | 1.3 |
| A35G U41C G61A U67C | 0.38 |
| A35G U41C U43C A64G | 0.91 |
| A35G U41C U43C U60C | 0.17 |
| A35G U41C U43G A64U U80A | 0.16 |
| A35G U41C U48C A57G U66C U78C U80A | 1.17 |
| A35G U41C U48C U74A | 1.26 |
| A35G U41C U54A A64U | 0.87 |
| A35G U41C U54C U67C A75G | 0.29 |
| A35G U41C U58C A64G | 0.79 |
| A35G U41C U60C | 1.07 |
| A35G U41C U60C U72A | 0.53 |
| A35G U41C U72C | 1.23 |
| A35G U41C U80A | 1.29 |
| A35G U41G U49C | 0.14 |
| A35G U41G U51A | 0.24 |

| Variant | self-cleavage |
| --- | --- |
| A35G U41G U60A | 0.19 |
| A35G U43A A77G | 1.28 |
| A35G U43A C68U | 1.22 |
| A35G U43A U48C | 1.13 |
| A35G U43A U49C G55C U80C | 0.72 |
| A35G U43A U51A U54C A56G U72C | 1.19 |
| A35G U43A U58C C62G U78A | 0.92 |
| A35G U43A U74C | 1.3 |
| A35G U43C A45G U48C G53U U69C | 0.43 |
| A35G U43C A45U A56G U58A U76C | 0.1 |
| A35G U43C A47G U58C U69C | 0.89 |
| A35G U43C A56G G61A G73A U78A | 0.57 |
| A35G U43C G53U A57G | 1.28 |
| A35G U43C U48C U54A | 1.17 |
| A35G U43C U54C U60C A65G U66C | 0.24 |
| A35G U43C U58A | 0.29 |
| A35G U43C U69C | 0.84 |
| A35G U43C U76C | 1.17 |
| A35G U43G U54A U58A | 0.15 |
| A35G U43G U54G | 0.11 |
| A35G U43G U58C A65G U80C | 0.24 |
| A35G U48A G73C U76C U80C | 1.29 |
| A35G U48A U66C | 0.43 |
| A35G U48A U78A | 1.24 |

| Variant | self-cleavage |
| --- | --- |
| A35G U48A U78C | 0.95 |
| A35G U48C A56U U67C C71U | 0.14 |
| A35G U48C A57G U67C | 0.15 |
| A35G U48C A64G U74C | 1.08 |
| A35G U48C A65G | 0.73 |
| A35G U48C G61A U74A | 0.93 |
| A35G U48C G63A | 1.21 |
| A35G U48C U51A U76C | 1.27 |
| A35G U48C U58C | 0.57 |
| A35G U48C U60A A64G | 0.39 |
| A35G U48C U60A U67C | 0.35 |
| A35G U48C U78C C81U | 1.3 |
| A35G U49A A57U U60A U72C | 0.6 |
| A35G U49A U51C U67C | 0.98 |
| A35G U49C A65G | 0.6 |
| A35G U49C A75G | 1.03 |
| A35G U49C C59A A64G U76C | 0.19 |
| A35G U49C U60C U74C | 0.32 |
| A35G U49C U67C U74C | 0.33 |
| A35G U51A A56G U66C | 1.09 |
| A35G U51A A64G | 1.21 |
| A35G U51A A64U U67C | 0.3 |
| A35G U51A A65G U78C U80C | 1.15 |
